Over roughly 33,000 sequences, “E-score (-0.5 to 0.5)” has its median near -0.01; the highest 2% begin near 0.26. Some of the results follow.
biological target: Ste12 (UniProt P13574); test: PBM E-score (8-mer binding enrichment) (E-score (-0.5 to 0.5)); higher = stronger / more preferred TF binding; most listed sequences are background and not binding sites; details: protein concentration: 200 nM; construct: GST-DNA-binding domain
Method in brief: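 GST-tagged yeast TFs (full-length or DNA-binding domain) were made by PURExpress in vitro transcription/translation and applied at about 100-200 nM to universal all-10-mer Agilent arrays. The arrays were made double-stranded by primer extension, on fresh or once-stripped slides. Bound protein was detected with fluorescent anti-GST, and scans were normalised with masliner. Each ungapped eight-base word, pooled with its reverse complement, received an E-score (modified Wilcoxon-Mann-Whitney statistic) from the Universal PBM Analysis Suite.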

Sequence | PBM E-score
TGGCAAAA | 0.173
CTCGTTCA | 0.0116
CTTAAATC | 0.105
TCAAGTAA | 0.112
GCGTTCAA | -0.171
ATAAGCCG | 0.0102
AGGTCATC | -0.297
GCCCCAAC | 0.13
CCCGTCGG | 0.0437
GTTCACTA | -0.13
CAATTGCG | 0.0264
AATGTTCC | 0.00954
ACCGCACG | -0.15
ACTCGCAC | -0.114
ATATAGTG | 0.0803
GAAGAGCC | -0.123
AGTCCGTA | -0.00041
CCCCTATC | -0.139
CAGGAGAC | 8e-05
GCATCCTA | -0.112
ACATAGCG | -0.133
CTTTGCAC | -0.0246
AAGAGGTC | -0.173
GCCGTTAA | -0.0341
ACAGCCTA | 0.143

Sequence | PBM E-score
ATCAACTG | -0.112
AAAGAGAT | -0.00574
TACAGATA | 0.0167
AATCCTGC | -0.158
CCACCGAC | 0.0147
AAACGATG | 0.0327
TAGCTGCA | -0.103
ATATGGGC | 0.0247
ACAACGGT | -0.14
ACACGGTA | 0.00668
AACACATA | 0.074
GTGCCTGA | -0.181
TCAACAAA | 0.239
TACACCGA | 0.0249
ATATGCCA | 0.0949
AACCCGGT | -0.124
GAAAAGGC | -0.101
CAAGAGCA | -0.0638
ATCCACCA | -0.0214
CCACGCAA | 0.00422
CTTGCTTA | -0.0912
ACGCGCAC | -0.134
GAAGAGCA | -0.107
CGCCTCCC | 0.0638
GAAGCTCA | -0.175

Sequence | PBM E-score
AATTGGGG | -0.117
AGGCAGCC | 0.0255
AAAACGGG | 0.236
ACTCGAGT | 0.0731
CACCCAGC | -0.0309
GCTCAGAC | 0.00203
AACCCGTT | -0.0712
TAGTTGGA | 0.16
TCGGCTAA | 0.128
AGACGGTA | -0.0164
AGAATGAA | 0.181
AGTTTGAG | 0.172
AGTATGAA | 0.184
AGAAGCGG | -0.163
CCGTGGGC | -0.0927
AGCCAGTC | -0.204
AGACTGCC | -0.0748
CACCACCG | -0.0489
ACTAAGCT | 0.0629
ATGACGAA | 0.0271
CTACCAGC | -0.113
ACTCGGAC | -0.135
CAGAGGGC | -0.164
ACTACAGG | -0.0636
CAATGCTC | -0.0778

Sequence | PBM E-score
ATTGTAAG | 0.0661
CAAACTTG | 0.0449
CGGCACCG | -0.0566
AATGCCGC | 0.101
CACGACTC | -0.162
GAACAACC | 0.00021
AACCCGGG | 0.0825
GAGGGTGA | -0.0363
TAGCTAGA | -0.0709
AAGTACGG | -0.0506
CATAGTAG | 0.0596
CTATGAGC | -0.118
AAGTCCCC | -0.0984
AGGTACCC | -0.148
CTTATAGC | -0.156
CATCCAAC | -0.0817
ATGAGGCA | 0.00856
GACGTTGC | -0.14
ATATGCGC | -0.0144
ATATCATA | 0.0543
ATAGGGGA | -0.0128
GGCCGTGA | 0.0209
GCAGTCGC | 0.0379
CTGCCCTA | -0.202
AAGAATGG | -0.0352

Sequence | PBM E-score
CGATCGTA | 0.0721
AATATTTC | 0.254
AGTTTGCG | 0.122
TAGGAGCA | -0.109
CTAAGCCC | -0.167
GATGTCGA | -0.114
CGAGGGAC | -0.213
CTACCTAG | -0.178
AAGGTAAT | 0.0565
AACTGGCG | 0.0203
GCACGACA | -0.186
TCGAGAGA | -0.0288
ACGGAATC | -0.097
AAAAGTCG | 0.0918
GTGATTAA | 0.13
GATTCTAC | -0.0765
AACTCCAT | -0.173
GCGGTTCC | 0.0504
AAACGCGT | 0.255
CAATCTCA | 0.183
CGGCCGCA | 0.1
AAACCAGT | 0.142
CGAACTCA | -0.0491
GCAGCCAC | 0.0568
ATACTCCA | 0.0877

Sequence | PBM E-score
ACCCTGTG | -0.155
CCCGGTTA | -0.0757
AGCGGGAA | -0.168
ATGATCGC | -0.0733
CCCCTCTC | -0.152
CTTCCTCA | 0.04
AATTGATA | 0.259
ATGACACA | 0.258
GTTACGCA | 0.00516
CCGCATCA | 0.15
CAGTGGAA | -0.114
AGATCCTG | -0.188
CAGTACCA | -0.193
GATTAGGC | -0.0927
ACGATTAC | -0.0384
CATGGCCA | -0.297
CCAGAGCA | 0.00745
CCTTAACC | 0.0143
CGGATACA | 0.016
AATTGACG | -0.123
GGTAGCGA | -0.0902
CTCGTTCC | 0.051
ACAAAATG | 0.0682
CTACAAGC | -0.108
CATGGGCG | 0.146

Sequence | PBM E-score
CTAAGGTC | 0.0181
GGACGAGA | -0.0489
ATACGCTG | -0.123
ATTCTATA | 0.0795
TCCTATCA | -0.176
ATGTCATG | 0.0163
GCAAGCAC | -0.125
TATACACA | 0.104
GCCTGAGA | -0.101
AAGAACTC | 0.0668
CAGTTAGA | -0.00133
CGAGACCA | -0.00507
CGTCACAA | 0.108
ATTCGTAA | 0.166
GATACCGC | 0.0934
ATCATGTA | 0.0854
GATGTAAA | 0.0157
TCGTAACA | 0.248
AATCCCGT | 0.18
GGCCGCAC | -0.0208
GGAAAAGA | 0.05
ATTACGGA | -0.0037

Source: the supplement of paper PMC3334620
